The source of these data is PubChem BioAssay (NCI).

In the assay the test system is NCI-H322M lung. Put plainly: NCI-60 cell line screen, 48 h.

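96-well plates; 48 h exposure; 5 concentrations. Endpoints by linear interpolation between flanking doses. Not reached: highest tested concentration assigned. At the GI50, growth is halved. The concentration for full growth arrest is given as TGI.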

As to `O=C(c1ccccc1)n1ccc(-c2cc3cc(Br)ccc3oc2=O)n1`, the GI50 was 4.51 µM and the TGI was over 100 µM.
